# From the RNAGym collection of RNA variant scans (doi:10.1093/nar/gkz1192)
# Read counts are not given, so values of variants with three or more changes are uncertain.
# B1: CPEB3 Ribozyme (parent)
# chain: UAACAGGGGGCCACAGCAGAAGCGUUCACGUCGCAGCCCCUGUCAGAUUCUGGUGAAUCUGCGAAUUCUGCUGUAUAUCUC
# Variants of: B1
# Experiment: self-cleavage, relative activity (ratio to wild type); higher = more cleavage; in vitro, sequencing
# Method in brief: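 CPEB3 self-cleaving ribozyme mutant libraries were made by rounds of error-prone PCR, barcoded, and transcribed in vitro with T7 RNA polymerase for 5 hours at 37°C. Cleavage occurred during transcription and a 15 min DNase I step before EDTA stop. RNAs were reverse transcribed with template switching and Illumina-sequenced, with DNA sequencing mapping barcodes to variants. Relative activity is the variant's cleaved/total read fraction divided by wild type's (minimum 5 reads), averaged across three batches.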
row,Variant,self-cleavage
1,A2G U26A G42U C62U,0.23
2,A2G U26A U41C U43C A45U,0.26
3,A2G U26A U43A A45G A64G U80C,0.32
4,A2G U26C A28U A35G U69A U72A,0.13
5,A2G U26C A35U A47U,0.24
6,A2G U26C A45U,0.37
7,A2G U26C A45U A65G U67C,0.15
8,A2G U26C A56G,0.21
9,A2G U26C C32U U72C,0.25
10,A2G U26C C39U U43C U51A U78C,0.27
11,A2G U26C G36A,0.56
12,A2G U26C U31C U43A U54C,0.41
13,A2G U26C U60A G63A U74A,0.06
14,A2G U26C U67C,0.43
15,A2G U26C U69A,0.24
16,A2G U26C U74C,0.72
17,A2G U31A U66C,0.28
18,A2G U31C A35G A47G U72C,0.31
19,A2G U31C G53U U72C,0.44
20,A2G U31C U41G A45G A56G,0
21,A2G U31C U43C A64U,0.08
22,A2G U31C U51A,0.63
23,A2G U31C U60A U80A,0.12
24,A2G U41A C62U A77U,0.12

row,Variant,self-cleavage
1,A2G U41A G53C U60C U66A A75G,0.18
2,A2G U41A U67C,0.04
3,A2G U41A U80C,0.11
4,A2G U41C A64U,0.42
5,A2G U41C U43C A64G,0.4
6,A2G U41C U54G,0.54
7,A2G U41C U58C,0.15
8,A2G U41C U66C U72C,0.18
9,A2G U41C U67C,0.16
10,A2G U43A A56U,0.67
11,A2G U43A A57U A77G,0.71
12,A2G U43A A77U,1.04
13,A2G U43C A56G U58A U67C G70U A75G,0.04
14,A2G U43C G63U U67C,0.13
15,A2G U43C U54C G63C,0.58
16,A2G U43C U69C,0.5
17,A2G U48C A56G U80C,0.3
18,A2G U48C U69C U72A,0.07
19,A2G U49A U66C U80G,0.19
20,A2G U51A A65G,0.23
21,A2G U51A U60C,0.14
22,A2G U51C A75U,0.19
23,A2G U54A A57G,0.42
24,A2G U54C A75G,0.81

row,Variant,self-cleavage
1,A2G U54C A75U,0.75
2,A2G U58A A65G,0.22
3,A2G U58C U67C,0.17
4,A2G U60A U72G,0.14
5,A2G U67C A75G U80C,0.16
6,A2G U67G U72A,0.19
7,A2G U69C A75G,0.16
8,A2G U69C U72A,0.2
9,A2G U69C U74C,0.64
10,A2G U72A U78C,0.3
11,A2G U74C U80C,1.16
12,A2G U76A C81U,0.73
13,A2U A3G A13G A28G A56G,0.08
14,A2U A3G A13U,0.96
15,A2U A3G A13U U58A A64G U80A C81U,0.22
16,A2U A3G A15G C23G U31C,0.36
17,A2U A3G A18G A20G A57G,0.6
18,A2U A3G A45C A56G U69C,0.18
19,A2U A3G A45G U72A U80A,0.89
20,A2U A3G A56G,1.03
21,A2U A3G C11G A28U A47G C62U,0.06
22,A2U A3G U25C A47G A64G U76A,0.14
23,A2U A3G U72A,0.81
24,A2U A3U U31C,1.09

row,Variant,self-cleavage
1,A2U A3U U41C,1.07
2,A2U A3U U43C A45U G52C,0.16
3,A2U A5G A13G U54C,0.43
4,A2U A5G A13U U41C U80C,0.94
5,A2U A5G A20U U72G,0.27
6,A2U A5G A21G U41C U72C,0.38
7,A2U A5G G33C A35U U51C U72A A77C,0.14
8,A2U A5G U26C U51C U58C,0.29
9,A2U A5G U31A U41C,0.39
10,A2U A5G U41C U54C A75G,0.3
11,A2U A5G U43G,0.41
12,A2U A5U A35G,1.17
13,A2U A5U C12U C38G U69A U78G,0.06
14,A2U A5U U72C,0.93
15,A2U A13C A56G U74A,0.96
16,A2U A13C U72A,0.35
17,A2U A13G A21G G33U U43C A45G U74C,0.05
18,A2U A13G A21G U31C A56G U67A,0.07
19,A2U A13G A21G U66C A75G,0.81
20,A2U A13G A28G,0.45
21,A2U A13G C27G U51C,0.07
22,A2U A13G C37A U60A,0.16
23,A2U A13G C37A U69A,0.14
24,A2U A13G G30U C37U A64G,0.14

row,Variant,self-cleavage
1,A2U A13G U31C U43C U60C,0.23
2,A2U A13G U67C U69A,0.15
3,A2U A13G U76C,0.44
4,A2U A13U A18G U25G U43C G46A U58C,0.04
5,A2U A13U A18U U51C U78A,0.12
6,A2U A13U A28U G73C,0.71
7,A2U A15C A35G U43A U48A U67C U76A,0.14
8,A2U A15C C17A U25C U43C U69A,0.06
9,A2U A15G A18U A21G U54C U69C U76C,0.13
10,A2U A15G A20G U41A A64G,0.46
11,A2U A15G A21G U72C,0.83
12,A2U A15G A64G,0.58
13,A2U A15G U31C U49A G53A,0.16
14,A2U A15G U43C U51A A64U U72C U78C,0.13
15,A2U A15U A18G,0.16
16,A2U A15U A35U A65U U66A U67A A75U,0.12
17,A2U A15U C32A U49A A56G,0.06
18,A2U A15U U66A G73C,0.51
19,A2U A18G A21G U41C A45G C50G,0.04
20,A2U A18G A28U C37A,0.32
21,A2U A18G U26A A57U C62U,0.1
22,A2U A18G U58A U78C,0.15
23,A2U A18G U60C A64U,0.17
24,A2U A18U A20G U74C,0.52

row,Variant,self-cleavage
1,A2U A18U U26A A28G,0.21
2,A2U A18U U26C G30A U41A A64U U72C,0.05
3,A2U A20G A21G A35U A64G U72A,0.09
4,A2U A20G A28G A35G U41A U54C A64G,0.29
5,A2U A20G A56G,0.89
6,A2U A20G U43C,0.18
7,A2U A20G U66C U67C,0.25
8,A2U A20U A28G,0.18
9,A2U A20U A57G,0.17
10,A2U A20U G52C U74C,0.55
11,A2U A20U G73A,0.64
12,A2U A20U U25C,0.38
13,A2U A20U U26C,0.2
14,A2U A20U U66C,0.31
15,A2U A21G C23U U54C U72C,0.59
16,A2U A21G G73C,0.9
17,A2U A21G U25C G36U A45U,0.25
18,A2U A21G U41A U66C,0.05
19,A2U A21U A28U,0.18
20,A2U A28G A35C A47G U74C,0.51
21,A2U A28G U72A,0.13
22,A2U A28G U78A,0.77
23,A2U A28U U48C U72C,0.4
24,A2U A35G U43C U58C,0.74

row,Variant,self-cleavage
1,A2U A35G U49C,0.99
2,A2U A35U U41C A65G U74A,0.23
3,A2U A35U U49C A64C,0.19
4,A2U A45G U78C,0.49
5,A2U A56G G61C U74C,0.27
6,A2U A56U C79A,0.77
7,A2U A57G U66C U74C,0.19
8,A2U A64G U80C,1.13
9,A2U A65U U66C U72A U80C,0.37
10,A2U C11G C23G G30A G52A A64G,0.05
11,A2U C11U A15G U41A U69C,0.06
12,A2U C11U A21G G30A U43C U74C U80C,0.06
13,A2U C11U G24A U31A U43C G46C,0.09
14,A2U C11U U43C C50U A56U A75U,0.03
15,A2U C12A A47G,0.48
16,A2U C12U A18U,0.47
17,A2U C12U A21G U41C A64G U72C,0.36
18,A2U C12U U58C A64U,0.21
19,A2U C14U A15U G52U U69C,0.34
20,A2U C14U A56G,1.1
21,A2U C17U A18U U41C A65G U80C,0.06
22,A2U C17U A20U U25C A28U U78C,0.19
23,A2U C23U U67C,0.17
